# Experimental data as given in patent US11618753B2 (priority 2018, dated 2023).
# Tested on: MLKL phosphorylation, HT29-L23 human colorectal adenocarcinoma cells
# Assay: cells
# Details: read-out: pMLKL HCS Cell Assay (IC50, uM)
row,Compound,IC50
1,"COc1ncc(-c2cc(C(F)(F)F)c3c(N)ncnn23)cc1C(=O)Nc1nc(C(=O)NC2CCCC2)co1 [Example 1303, 5-[4-amino-5-(trifluoromethyl)pyrrolo-[2,1-f][1,2,4]triazin-7-yl]-N-[4-(cyclopentylcarbamoyl)-1,3-oxazol-2-yl]-2-methoxypyridine-3-carboxamide]",0.291 µM
2,"CCCN(CC1CC1)C(=O)c1coc(NC(=O)c2cc(-c3cc(C(F)(F)F)c4c(N)ncnn34)cnc2OC)n1 [Example 1304, 5-[4-amino-5-(trifluoromethyl)pyrrolo-[2,1-f][1,2,4]triazin-7-yl]-N-{4-[(cyclopropylmethyl)(propyl)carbamoyl]-1,3-oxazol-2-yl}-2-methoxypyridine-3-carboxamide]",0.383 µM
3,"COc1ncc(-c2cc(C(F)(F)F)c3c(N)ncnn23)cc1C(=O)Nc1ncc(C(=O)NCc2cc(OC(F)(F)F)ccc2F)s1 [Example 1305, 5-[4-amino-5-(trifluoromethyl)pyrrolo-[2,1-f][1,2,4]triazin-7-yl]-N-[5-({[2-fluoro-5-(trifluoromethoxy)phenyl]-methyl}carbamoyl)-1,3-thiazol-2-yl]-2-methoxypyridine-3-carboxamide]",0.48 µM
4,"CC(C)(F)C(=O)N1C[C@H](F)[C@H](NC(=O)c2cc(-c3cc(CN4CC(F)(F)C4)c4c(N)ncnn34)c(F)cc2Cl)C1 [Example 1306, 5-{4-amino-5-[(3,3-difluoroazetidin-1-yl)methyl]pyrrolo[2,1-f][1,2,4]-triazin-7-yl}-2-chloro-4-fluoro-N-[(3R,4S)-4-fluoro-1-(2-fluoro-2-methylpropanoyl)pyrrolidin-3-yl]-benzamide]",0.0028 µM
5,"Nc1ncnn2c(-c3cc(C(=O)N[C@@H]4CN(C(=O)CC(F)(F)F)C[C@@H]4F)c(Cl)cc3F)cc(CN3CC(F)(F)C3)c12 [Example 1307, 5-{4-amino-5-[(3,3-difluoroazetidin-1-yl)methyl]pyrrolo[2,1-f][1,2,4]-triazin-7-yl}-2-chloro-4-fluoro-N-[(3R,4S)-4-fluoro-1-(3,3,3-trifluoro-propanoyl)pyrrolidin-3-yl]benzamide]",0.00089 µM
6,"CC(C)(C(=O)N1C[C@H](F)[C@H](NC(=O)c2cc(-c3cc(CN4CC(F)(F)C4)c4c(N)ncnn34)c(F)cc2Cl)C1)C(F)(F)F [Example 1308, 5-{4-amino-5-[(3,3-difluoroazetidin-1-yl)methyl]pyrrolo[2,1-f][1,2,4]triazin-7-yl}-2-chloro-4-fluoro-N-[(3R,4S)-4-fluoro-1-(3,3,3-trifluoro-2,2-dimethyl-propanoyl)pyrrolidin-3-yl]benzamide]",0.0014 µM
7,"Nc1ncnn2c(-c3cc(C(=O)N[C@@H]4CN(C(=O)C5CC(F)(F)C5)C[C@@H]4F)c(Cl)cc3F)cc(CN3CC(F)(F)C3)c12 [Example 1309, 5-{4-amino-5-[(3,3-difluoroazetidin-1-yl)methyl]pyrrolo[2,1-f][1,2,4]-triazin-7-yl}-2-chloro-N-[(3R,4S)-1-(3,3-difluorocyclobutanecarbonyl)-4-fluoropyrrolidin-3-yl]-4-fluoro-benzamide]",0.00062 µM
8,"Nc1ncnn2c(-c3cc(C(=O)N[C@@H]4CN(C(=O)C5CCC(F)(F)C5)C[C@@H]4F)c(Cl)cc3F)cc(CN3CC(F)(F)C3)c12 (stereo partly drawn) [Example 1310, 5-{4-amino-5-[(3,3-difluoroazetidin-1-yl)methyl]pyrrolo[2,1-f][1,2,4]-triazin-7-yl}-2-chloro-N-[(3R,4S)-1-(3,3-difluorocyclopentanecarbonyl)-4-fluoropyrrolidin-3-yl]-4-fluoro-benzamide]",0.0015 µM
9,"C[C@@](O)(C(=O)N1C[C@H](F)[C@H](NC(=O)c2cc(-c3cc(CN4CC(F)(F)C4)c4c(N)ncnn34)c(F)cc2Cl)C1)C(F)(F)F [Example 1313, 5-{4-amino-5-[(3,3-difluoroazetidin-1-yl)methyl]pyrrolo[2,1-f][1,2,4]-triazin-7-yl}-2-chloro-4-fluoro-N-[(3R,4S)-4-fluoro-1-[(2R)-3,3,3-trifluoro-2-hydroxy-2-methyl-propanoyl]pyrrolidin-3-yl]benzamide]",0.0013 µM
10,"C[C@@](O)(C(=O)N1C[C@H](F)[C@H](NC(=O)c2cc(F)cc(-c3cc(C(F)(F)F)c4c(N)ncnn34)c2)C1)C(F)(F)F [Example 1314, 3-[4-amino-5-(trifluoromethyl)pyrrolo-[2,1-f][1,2,4]triazin-7-yl]-5-fluoro-N-[(3R,4S)-4-fluoro-1-[(2R)-3,3,3-trifluoro-2-hydroxy-2-methyl-propanoyl]pyrrolidin-3-yl]benzamide]",0.011 µM
11,"Nc1ncnn2c(-c3cc(F)cc(C(=O)N[C@@H]4CN(C(=O)C5CC(F)(F)C5)C[C@@H]4F)c3)cc(C(F)(F)F)c12 [Example 1315, 3-[4-amino-5-(trifluoromethyl)pyrrolo-[2,1-f][1,2,4]triazin-7-yl]-N-[(3R,4S)-1-(3,3-difluorocyclobutanecarbonyl)-4-fluoropyrrolidin-3-yl]-5-fluoro-benzamide]",0.052 µM
12,"CCC(O)(C(=O)N1C[C@H](F)[C@H](NC(=O)c2cc(F)cc(-c3cc(C(F)(F)F)c4c(N)ncnn34)c2)C1)C(F)(F)F (stereo partly drawn) [Example 1316, 3-[4-amino-5-(trifluoromethyl)pyrrolo-[2,1-f][1,2,4]triazin-7-yl]-5-fluoro-N-[(3R,4S)-4-fluoro-1-[2-hydroxy-2-(trifluoromethyl)butanoyl]pyrrolidin-3-yl]benzamide]",0.0068 µM
13,"Cc1c(F)cc(-c2cc(C(F)(F)F)c3c(N)ncnn23)cc1C(=O)N[C@@H]1CN(C(=O)C2CC23CC3)C[C@@H]1F (stereo partly drawn) [Example 1317, 5-[4-amino-5-(trifluoromethyl)pyrrolo-[2,1-f][1,2,4]triazin-7-yl]-3-fluoro-N-((3R,4S)-4-fluoro-1-{spiro[2.2]pentane-1-carbonyl}pyrrolidin-3-yl]-2-methyl-benzamide]",0.0075 µM
14,"Cc1c(F)cc(-c2cc(C(F)(F)F)c3c(N)ncnn23)cc1C(=O)N[C@@H]1CN(C(=O)CC(C)(O)C(F)(F)F)C[C@@H]1F (stereo partly drawn) [Example 1318, 5-[4-amino-5-(trifluoromethyl)pyrrolo-[2,1-f][1,2,4]triazin-7-yl]-3-fluoro-N-[(3R,4S)-4-fluoro-1-(4,4,4-trifluoro-3-hydroxy-3-methylbutanoyl)pyrrolidin-3-yl]-2-methylbenzamide]",0.0036 µM
15,"Cc1c(F)cc(-c2cc(C(F)(F)F)c3c(N)ncnn23)cc1C(=O)N[C@@H]1CN(C(=O)C(C)C(F)(F)F)C[C@@H]1F (stereo partly drawn) [Example 1319, 5-[4-amino-5-(trifluoromethyl)pyrrolo-[2,1-f][1,2,4]triazin-7-yl]-3-fluoro-N-[(3R,4S)-4-fluoro-1-(3,3,3-trifluoro-2-methylpropanoyl)pyrrolidin-3-yl]-2-methylbenzamide]",0.0084 µM
16,"Cc1c(F)cc(-c2cc(C(F)(F)F)c3c(N)ncnn23)cc1C(=O)N[C@@H]1CN(C(=O)CC(C(F)(F)F)C(F)(F)F)C[C@@H]1F [Example 1320, 5-[4-amino-5-(trifluoromethyl)pyrrolo-[2,1-f][1,2,4]triazin-7-yl]-3-fluoro-N-[(3R,4S)-4-fluoro-1-[4,4,4-trifluoro-3-(trifluoromethyl)butanoyl]pyrrolidin-3-yl]-2-methylbenzamide]",0.0018 µM
17,"CCC(O)(C(=O)N1C[C@H](F)[C@H](NC(=O)c2cc(-c3cc(C(F)(F)F)c4c(N)ncnn34)cc(F)c2C)C1)C(F)(F)F (stereo partly drawn) [Example 1321, 5-[4-amino-5-(trifluoromethyl)pyrrolo-[2,1-f][1,2,4]triazin-7-yl]-3-fluoro-N-[(3R,4S)-4-fluoro-1-[2-hydroxy-2-(trifluoromethyl)butanoyl]pyrrolidin-3-yl]-2-methylbenzamide]",0.0023 µM
18,"Cc1c(F)cc(-c2cc(C(F)(F)F)c3c(N)ncnn23)cc1C(=O)N[C@@H]1CN(C(=O)c2cccnc2)C[C@@H]1F [Example 1322, 5-[4-amino-5-(trifluoromethyl)pyrrolo-[2,1-f][1,2,4]triazin-7-yl]-3-fluoro-N-[(3R,4S)-4-fluoro-1-(pyridine-3-carbonyl)pyrrolidin-3-yl]-2-methyl-benzamide]",0.023 µM
19,"Cc1c(F)cc(-c2cc(C(F)(F)F)c3c(N)ncnn23)cc1C(=O)N[C@@H]1CN(C(=O)c2ccncc2F)C[C@@H]1F [Example 1323, 5-[4-amino-5-(trifluoromethyl)pyrrolo-[2,1-f][1,2,4]triazin-7-yl]-3-fluoro-N-[(3R,4S)-4-fluoro-1-(3-fluoropyridine-4-carbonyl)pyrrolidin-3-yl]-2-methyl-benzamide]",0.0049 µM
20,"Cc1c(F)cc(-c2cc(C(F)(F)F)c3c(N)ncnn23)cc1C(=O)N[C@@H]1CN(C(=O)c2cncc(F)c2)C[C@@H]1F [Example 1324, 5-[4-amino-5-(trifluoromethyl)pyrrolo-[2,1-f][1,2,4]triazin-7-yl)-3-fluoro-N-[(3R,4S)-4-fluoro-1-(5-fluoropyridine-3-carbonyl)pyrrolidin-3-yl]-2-methyl-benzamide]",0.0081 µM
21,"Cc1c(F)cc(-c2cc(C(F)(F)F)c3c(N)ncnn23)cc1C(=O)N[C@@H]1CN(C(=O)c2c(F)cncc2F)C[C@@H]1F [Example 1325, 5-[4-amino-5-(trifluoromethyl)pyrrolo-[2,1-f][1,2,4]triazin-7-yl]-N-[(3R,4S)-1-(3,5-difluoropyridine-4-carbonyl)-4-fluoropyrrolidin-3-yl]-3-fluoro-2-methylbenzamide]",0.0029 µM
22,"CCC(O)(C(=O)N1C[C@H](F)[C@H](NC(=O)c2cc(-c3cc(C(F)(F)F)c4c(N)ncnn34)cc(F)c2Cl)C1)C(F)(F)F (stereo partly drawn) [Example 1326, 5-[4-amino-5-(trifluoromethyl)pyrrolo-[2,1-f][1,2,4]triazin-7-yl]-2-chloro-3-fluoro-N-[(3R,4S)-4-fluoro-1-[2-hydroxy-2-(trifluoromethyl)butanoyl]-pyrrolidin-3-yl]benzamide]",0.0043 µM
23,"C[C@@](O)(C(=O)N1C[C@H](F)[C@H](NC(=O)c2cc(-c3cc(C(F)(F)F)c4c(N)ncnn34)cc(F)c2Cl)C1)C(F)(F)F [Example 1327, 5-[4-amino-5-(trifluoromethyl)pyrrolo-[2,1-f][1,2,4]triazin-7-yl]-2-chloro-3-fluoro-N-[(3R,4S)-4-fluoro-1-[(2R)-3,3,3-trifluoro-2-hydroxy-2-methyl-propanoyl]pyrrolidin-3-yl]benzamide]",0.0012 µM
